In the supplement of paper PMC2702839:
Structures can show the parent of a compound that is named as a salt. This is one part of the list.

What follows are compounds tested on Schistosoma mansoni schistosomula (assay: phenotypic hit in primary schistosomula screen (any phenotype vs DMSO control) (binary (1 = hit, 0 = no phenotype)); higher = active (phenotype induced)). Conditions: 1 µM; time (d): 7.
For Nc1nc2[nH]cnc2c(=S)[nH]1 [thioguanine], the phenotypic hit was inactive: 0.
For CN(C)C(=O)C(CCN1CCC(O)(c2ccc(Cl)cc2)CC1)(c1ccccc1)c1ccccc1 [Loperamide hydrochloride], the phenotypic hit was inactive: 0.
In the case of CC(=O)OC1CCC2(C)C(=CCC3C2CCC2(C)C(C(C)CCCC(C)C)CCC32)C1 (centres undefined) [cholesteryl acetate], the phenotypic hit is reported as inactive: 0.
In the case of CC(C)=CCC[C@@H](C)[C@H]1CC[C@@]2(C)C3=C(CC[C@]12C)[C@@]1(C)CC[C@H](O)C(C)(C)[C@@H]1CC3 [lanosterol], the phenotypic hit is reported as inactive: 0.
O=c1ccc2cc(O)c(O)cc2o1 [esculetin] was tested, and the phenotypic hit was inactive: 0.
C[C@H](CCC(=O)O)[C@H]1CC[C@H]2[C@@H]3[C@H](O)C[C@@H]4C[C@H](O)CC[C@]4(C)[C@H]3C[C@H](O)[C@]12C [cholic acid] was tested, and the phenotypic hit was inactive: 0.
For Cc1cc(O)c2c(c1)C(=O)c1cccc(O)c1C2=O [chrysophanol], the phenotypic hit was inactive: 0.
For CC(C(=O)O)c1ccc(-c2ccccc2)c(F)c1 (centres undefined) [flurbiprofen], the phenotypic hit was inactive: 0.
In the case of O=C(OCC(O)CO)c1ccccc1Nc1ccnc2cc(Cl)ccc12 (centres undefined) [glafenine], the phenotypic hit is reported as inactive: 0.
With C[C@H]1O[C@@H](O[C@H]2[C@@H](O)C[C@H](O[C@H]3[C@@H](O)C[C@H](O[C@H]4CC[C@@]5(C)[C@H](CC[C@@H]6[C@@H]5C[C@@H](O)[C@]5(C)[C@@H](C7=CC(=O)OC7)CC[C@]65O)C4)O[C@@H]3C)O[C@@H]2C)C[C@H](O)[C@@H]1O [digoxin] the phenotypic hit was inactive: 0.
For COc1cc([S+](C)[O-])ccc1-c1nc2cccnc2[nH]1 (centres undefined) [sulmazole], the phenotypic hit was inactive: 0.
For COc1ccccc1OCC(O)CO (centres undefined) [guaifenesin], the phenotypic hit was inactive: 0.
COc1cc(C)c2c(c1C=O)Oc1c(c(C)c(O)c3c1C(O)OC3=O)OC2=O (centres undefined) [stictic acid] was tested, and the phenotypic hit was inactive: 0.
For NC[C@@H]1O[C@H](O[C@H]2[C@@H](O)[C@H](O[C@@H]3[C@@H](O)[C@H](N)C[C@H](N)[C@H]3O[C@H]3O[C@H](CO)[C@@H](O)[C@H](O)[C@H]3N)O[C@@H]2CO)[C@H](N)[C@@H](O)[C@@H]1O [paromomycin sulfate], the phenotypic hit was inactive: 0.
With Cc1cc(=O)[nH]c(=S)[nH]1 [methylthiouracil] the phenotypic hit was inactive: 0.
For Cc1cccc(C)c1OCC(C)N (centres undefined) [mexiletine hydrochloride], the phenotypic hit was inactive: 0.
Oc1ccc(/C=C/c2cc(O)cc(O)c2)cc1 [resveratrol] was tested, and the phenotypic hit was inactive: 0.
In the case of CC(=O)N1CCCC1C(=O)O (centres undefined) [n-acetylproline], the phenotypic hit is reported as inactive: 0.
With CCOC(=O)C1=C(COCCN)NC(C)=C(C(=O)OC)C1c1ccccc1Cl (centres undefined) [amlodipine besylate] the phenotypic hit was inactive: 0.
Oc1c(Cl)cc(Cl)c(Cl)c1Cc1c(O)c(Cl)cc(Cl)c1Cl [hexachlorophene] was tested, and the phenotypic hit was active: 1.
In the case of Cc1c(N(C)C)c(=O)n(-c2ccccc2)n1C [aminophenazone], the phenotypic hit is reported as inactive: 0.
CCOc1ccc2ccccc2c1C(=O)N[C@@H]1C(=O)N2[C@@H]1SC(C)(C)[C@@H]2C(=O)O [nafcillin sodium] was tested, and the phenotypic hit was inactive: 0.
In the case of CCN(CC)CCNC(=O)c1cc(Cl)c(N)cc1OC [Metoclopramide hydrochloride], the phenotypic hit is reported as inactive: 0.
In the case of CC1OC(OC2C(O)COC(OC3C(C)OC(OC4C(OC(=O)C56CCC(C)(C)CC5C5=CCC7C8(C)CCC(OC9OC(CO)C(O)C(O)C9O)C(C)(C)C8CCC7(C)C5(C)CC6O)OCC(O)C4O)C(O)C3O)C2O)C(O)C(O)C1O (centres undefined) [chrysanthellin a], the phenotypic hit is reported as inactive: 0.
With CC1=NN(c2ccccc2)C(=O)C1 [3-methyl-1-phenyl-2-pyrazolin-5-one (mci-186)] the phenotypic hit was inactive: 0.
With Cn1cnc2c1c(=O)[nH]c(=O)n2C [Theobromine] the phenotypic hit was inactive: 0.
In the case of CCC[C@@H]1C[C@@H](C(=O)N[C@@H]([C@H]2O[C@H](SC)[C@H](O)[C@@H](O)[C@H]2O)[C@H](C)Cl)N(C)C1 [clindamycin hydrochloride], the phenotypic hit is reported as inactive: 0.
In the case of O=C(O)CCNC(=O)c1ccccc1 [betamipron], the phenotypic hit is reported as inactive: 0.
In the case of O=C(N[C@H](CO)[C@H](O)c1ccc([N+](=O)[O-])cc1)C(Cl)Cl [chloramphenicol], the phenotypic hit is reported as inactive: 0.
In the case of COc1ccc(-c2coc3cc(OC)ccc3c2=O)cc1 [7,4'-dimethoxyisoflavone], the phenotypic hit is reported as active: 1.
For C=C(C)C1(O)OC(=O)C=C1OC (centres undefined) [penicillic acid], the phenotypic hit was inactive: 0.
In the case of C[n+]1c2cc(N)ccc2cc2ccc(N)cc21 [acriflavinium hydrochloride], the phenotypic hit is reported as active: 1.
In the case of NC/C=C/C(=O)O [t-4-aminocrotonic acid (taca)], the phenotypic hit is reported as inactive: 0.
CCCc1occc(=O)c1/C=C/O [2-propyl-3-hydroxyethylenepyran-4-one] was tested, and the phenotypic hit was inactive: 0.
CC(C)[N+](C)(CCOC(=O)C1c2ccccc2Oc2ccccc21)C(C)C [propantheline bromide] was tested, and the phenotypic hit was inactive: 0.
With CN(C)CCC=C1c2ccccc2COc2ccccc21 [doxepin hydrochloride] the phenotypic hit was active: 1.
With OCc1cccnc1 [nicotinyl tartrate] the phenotypic hit was inactive: 0.
For CC1=CC(=O)C(C(C)C)=CC1=O [thymoquinone], the phenotypic hit was inactive: 0.
For CN[C@@H]1[C@H](O)[C@H](NC)[C@H]2O[C@@]3(O)C(=O)C[C@@H](C)O[C@H]3O[C@@H]2[C@H]1O [spectinomycin hydrochloride], the phenotypic hit was inactive: 0.
With CCC[C@H]1CC2=C(C[C@@H](CC)CC3=C1C(=O)OC3=O)C(=O)OC2=O [byssochlamic acid] the phenotypic hit was inactive: 0.
For NS(=O)(=O)c1cc2c(cc1Cl)NC(C(Cl)Cl)NS2(=O)=O (centres undefined) [trichlormethiazide], the phenotypic hit was inactive: 0.
In the case of CN[C@H](CC(=O)O)C(=O)O [N-Methyl-D-aspartic acid], the phenotypic hit is reported as inactive: 0.
In the case of Cc1onc(-c2ccccc2Cl)c1C(=O)N[C@@H]1C(=O)N2[C@@H]1SC(C)(C)[C@@H]2C(=O)O [cloxacillin sodium], the phenotypic hit is reported as inactive: 0.
For C=C[C@@](C)(O)CCC1C(=C)CCC2[C@@](C)(CO)CCC[C@]12C (stereo partly drawn) [epi (13)torulosol], the phenotypic hit was inactive: 0.
